Measurements as given in the supplement of paper PMC3334620.
The full ranking holds about 33,000 sequences; the median of “E-score (-0.5 to 0.5)” is about -0.011, and the highest 2% start at about 0.28. This is one part of the list.

Each sequence was assayed against T1, Gcr1 (UniProt P07261) (assay: PBM E-score (8-mer binding enrichment) (E-score (-0.5 to 0.5)); higher = stronger / more preferred TF binding; most listed sequences are background and not binding sites). Settings: protein concentration: 100 nM; construct: GST-full length.
T1 sequence: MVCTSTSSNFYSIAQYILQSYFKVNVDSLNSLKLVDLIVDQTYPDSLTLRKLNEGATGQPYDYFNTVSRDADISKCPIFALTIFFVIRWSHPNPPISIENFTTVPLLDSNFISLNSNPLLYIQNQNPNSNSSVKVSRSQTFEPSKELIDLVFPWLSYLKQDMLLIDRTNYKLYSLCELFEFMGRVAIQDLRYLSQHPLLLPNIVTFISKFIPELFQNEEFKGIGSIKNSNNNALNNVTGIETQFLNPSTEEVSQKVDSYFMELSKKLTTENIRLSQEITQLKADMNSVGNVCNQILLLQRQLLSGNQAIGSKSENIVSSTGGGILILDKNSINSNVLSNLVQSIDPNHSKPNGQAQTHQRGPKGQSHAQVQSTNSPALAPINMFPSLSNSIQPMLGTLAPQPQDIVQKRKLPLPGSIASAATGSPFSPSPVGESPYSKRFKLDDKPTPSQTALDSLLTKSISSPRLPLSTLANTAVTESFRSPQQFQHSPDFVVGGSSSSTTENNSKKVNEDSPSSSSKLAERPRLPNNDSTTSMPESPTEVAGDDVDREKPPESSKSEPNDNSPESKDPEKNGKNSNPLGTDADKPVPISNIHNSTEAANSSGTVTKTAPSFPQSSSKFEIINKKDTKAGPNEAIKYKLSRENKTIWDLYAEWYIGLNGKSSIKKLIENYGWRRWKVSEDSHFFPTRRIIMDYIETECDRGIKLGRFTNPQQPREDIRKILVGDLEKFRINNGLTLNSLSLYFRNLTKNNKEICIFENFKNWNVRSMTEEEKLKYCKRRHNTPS
Method in brief: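 Yeast transcription factors carrying a GST tag, as full-length proteins or DNA-binding domains, were produced by PURExpress in vitro transcription/translation. About 100-200 nM protein was applied to universal all-10-mer Agilent arrays, double-stranded by primer extension on fresh or once-stripped slides. Bound protein was detected with fluorescent anti-GST, and scans were normalised with masliner. The Universal PBM Analysis Suite gave each ungapped eight-base word, pooled with its reverse complement, an E-score, a modified Wilcoxon-Mann-Whitney statistic.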

Sequence	PBM E-score
ACTTGAAA	0.0693
ATACAACC	0.0589
ACCGATGA	-0.176
GGGCAAGA	-0.0914
ACTCAGCG	0.00766
CTCGCATC	0.0801
ATGACCTC	0.0136
AATGGTCT	-0.142
AGCATGAA	-0.0935
ACTATGCG	0.0747
GCGTACAA	-0.0517
CACGGCTC	0.0065
CATGTACA	-0.129
CCGTTTAC	0.011
CTTCAGAC	-0.187
CTATGTTA	0.204
GATTAGAA	0.159
ATTACTCC	0.077
AAGATTGT	-0.0427
AAGATTTG	0.0731
CAACGTCC	-0.0412
GATGATGA	0.019

Sequence	PBM E-score
GTAGCCAC	0.147
AATTGGCG	0.162
CCGTGACG	-0.165
AACTGCGC	-0.0421
AGGGGAAA	0.0362
CGCACTTC	0.0702
AAATTACA	0.0399
CTTATATA	0.0537
GCGGCTTA	0.139
GTCAAATA	0.0424
CCTCGTTA	0.0311
CTATTTGC	-0.0505
GAGTAGGA	-0.0144
CAACTAGA	0.106
AAGATATC	-0.155
CAAGCACC	0.139
CTTACCTA	-0.194
GACTCGAC	-0.0543
CTCCAAAA	0.0323
CGGCTATA	-0.0012
AACCCCTT	0.142
TCGATTAA	0.0733

Sequence	PBM E-score
AGTGCGCC	-0.0405
CTTTCAGC	-0.00015
GCCGAGAA	0.246
AGTTTCTA	0.0364
GGTCTAAC	-0.2
CTAGCGCC	0.0934
GCCTGGTA	-0.0802
ACCACACG	0.00077
CATGGAGG	-0.294
GTAGAGAC	-0.173
AACCAACT	0.0546
CACTACCA	-0.0446
AAGTGTGC	-0.187
GCTGTTAC	-0.0893
CAGCGTGG	-0.133
CCTTTTGA	0.0317
ACGCATCC	0.311
ATTTGGTC	0.134
ACATAACC	-0.183
CCACGTGG	-0.0825
ACCCACGC	0.00745
CACCTTGA	-0.0636

Sequence	PBM E-score
TTCGAGAA	0.0625
GGCGGCTA	0.0757
CCTCGCCA	-0.0884
AGATCCTA	0.158
AGACGCAC	0.115
GTGGTCGA	-0.0539
CCGTAAGC	-0.00669
ACAAATCC	-0.0939
AACACGGG	-0.00664
GGGTCATA	-0.257
ATCCAAGC	-0.159
CATCTACA	-0.0674
AAGCAAGT	-0.23
CCCACTAC	0.187
ATAGACTA	-0.0574
GCATCAAA	-0.0446
AAGACTAC	-0.0723
CCACGTGC	-0.0929
GACTGGCC	-0.151
ACACTCAC	-0.209
ACTCTTAA	-0.0551
ACTCATGC	0.00533

Sequence	PBM E-score
TAACGGCA	0.0911
AACCTGCG	-0.0911
CCGAGTCG	-0.238
AAGTGGTG	0.281
CAGCCAAA	0.154
CGCTTTCC	-0.0681
AAATTGAG	0.163
ATTAGCGG	0.128
CGTTTAGC	-0.142
CTAGGTTA	-0.0773
GAGTACAC	-0.0685
GTGGAAAC	0.0791
CATAAACA	0.0805
ACAGGTCT	-0.122
AGCTAATA	0.0193
CATCGGAA	0.0772
AATGCACA	-0.117
ATAACCGC	-0.119
ATCAGGCG	0.0128
AACCCTTG	-0.221
GAGGTAGA	-0.303
CTTTAGTC	0.0272
